Measurements: paper PMC6919601, “Identification of Plasmodium dipeptidyl aminopeptidase allosteric inhibitors by high throughput screening” (PLoS ONE, 2019)
Out of some 110,000 compounds screened, about 230 (0.21%) showed an effect of 50% or more. The list shows a part of the results.

What follows are compounds tested against DPAP1 (Plasmodium falciparum, UniProt Q8IIJ9) (assay: primary screen, percent inhibition; read by cleavage of a fluorogenic dipeptide substrate; higher = more effect of the substance).
Set-up: species or system P. falciparum D10 trophozoite lysates; single well
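Also: 30 min substrate incubation versus DMSO and 10 µM JCP410 controls.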

DPAP1, sequence (Q8IIJ9 whole entry, looked up): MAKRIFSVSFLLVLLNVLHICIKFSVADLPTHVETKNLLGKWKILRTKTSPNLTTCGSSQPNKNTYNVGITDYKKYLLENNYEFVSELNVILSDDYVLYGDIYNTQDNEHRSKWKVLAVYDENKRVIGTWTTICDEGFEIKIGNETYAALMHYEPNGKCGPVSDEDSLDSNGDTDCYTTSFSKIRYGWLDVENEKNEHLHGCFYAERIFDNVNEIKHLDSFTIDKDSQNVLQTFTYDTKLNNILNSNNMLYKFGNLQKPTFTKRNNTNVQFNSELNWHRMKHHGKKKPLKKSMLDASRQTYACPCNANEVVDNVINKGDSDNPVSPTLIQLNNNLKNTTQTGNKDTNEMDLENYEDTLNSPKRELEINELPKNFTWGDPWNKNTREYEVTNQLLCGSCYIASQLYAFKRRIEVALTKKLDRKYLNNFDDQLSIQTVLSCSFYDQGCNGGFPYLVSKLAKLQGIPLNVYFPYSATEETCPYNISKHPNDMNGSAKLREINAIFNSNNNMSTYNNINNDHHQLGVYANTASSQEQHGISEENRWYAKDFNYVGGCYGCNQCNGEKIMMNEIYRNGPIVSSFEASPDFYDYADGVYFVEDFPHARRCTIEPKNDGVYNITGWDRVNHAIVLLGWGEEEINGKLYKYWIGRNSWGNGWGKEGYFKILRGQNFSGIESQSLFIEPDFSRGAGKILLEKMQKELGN

SMILES	% Inhibition @ 10 uM [%]
CC1=CN2C(=N)/C(=C/c3cc(C)n(-c4ccc(C)c(Cl)c4)c3C)C(=O)N=C2S1	3.87
N#CC1=C(N)OC2=C(C(=O)CC(c3ccccc3)C2)C1c1ccc(Br)o1 (stereo not drawn)	0.605
Cc1ccc(N2C(=O)NC(=O)/C(=C/N3CCN(C)CC3)C2=O)cc1C	-3.83
O=[N+]([O-])c1ccccc1S(=O)(=O)N1CCNCC1	-8.3
CN1C(=O)[C@@H]2[C@H](C1=O)[C@H](C(=O)c1ccccc1)N1C=Cc3ccccc3[C@@H]21	-3.45
N#CCNC(=O)[C@H](Cn1ccnc1)NC(=O)OCc1ccccc1	-8.81
C#CCSc1nc2c(c(=O)n1CC=C)C1(CCCC1)Cc1ccccc1-2	-2.2
CC(=O)c1ccc(NC(=O)c2ccc(S(=O)(=O)N3CCCCCC3)cc2)cc1	-9.2
Nc1[nH]nc(Cc2ccccc2)c1-c1ccccc1	-1.99
O=C(N/C(=C\c1ccco1)C(=O)N1CCCCC1)c1cccc(Br)c1	0.746
CCOc1ccc(CCNc2ncnc3onc(-c4ccc(F)cc4)c23)cc1	6.18
O=C1c2cccc3c(Br)ccc(c23)C(=O)N1c1nc[nH]n1	2.4
CCN1CCC(NCc2ccc(F)cc2)CC1	-0.0908
CCCNC(=O)C(CC)n1ncn2c(cc3occc32)c1=O (stereo not drawn)	1.38
COc1ccc(C2Sc3nncn3N2Cc2ccc(C(=O)c3ccccc3)cc2)cc1 (stereo not drawn)	11.2
CC(C)NC(=O)C1(c2ccccc2)CCCC1	2.38
Cc1cc(NC(=O)CNC(C)(C)C)c2ccccc2n1	0.266
CC1(C)CC(=O)C2=C(C1)OC1=C(C(=O)CC(C)(C)C1)C2c1cc(Cl)ccc1O	6.22
CCNC(=O)/C(=C\c1ccccc1)NC(=O)c1ccccc1OC	-0.864
COc1ccc(S(=O)(=O)Nc2cc(C)cc(C)c2)cc1	0.135
N#CC1(c2ccc(OCc3ccccc3)cc2)CCC(=O)N1Cc1ccccc1 (stereo not drawn)	4.06
C[C@@H]1CN(C2=CC(=O)OC23CCCCC3)C[C@H](C)O1	1.74
Cc1nc(Nc2c3ccccc3nc3ccccc23)sc1C	-1.69
Clc1ccc(COc2cccc(CNCc3cccnc3)c2)cc1	-1.43
CCN1CCN(C(=O)c2cnn(-c3ccc(F)cc3)c2C2CCN(C(=O)OC(C)(C)C)CC2)CC1	1.06
COc1cccc(NC(=O)COc2cc(C)ccc2C(C)C)c1	0.683
Cc1cc(NS(=O)(=O)c2ccc(NC(N)=S)cc2)no1	1.83
